Laboratory results from the supplement of paper PMC10126150.
Values marked as one replicate rest on one cluster of the flow cell; about a third of the high ones do not repeat.
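Note: ATP exposure 15 min at 22 °C before imaging.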

What follows are sequences tested on ATP (assay: switch fluorescence ratio, 500 uM ATP over buffer (Cy3 cluster intensity, sum of 5 cycles each) (fold (ratio)); higher = stronger signal-on switching upon ATP binding; sequences stand for … in TCGTCGGCAGCGTCAGATGTGTATAAGAGACAGTTTTTTTTTTTTTTTTTTTTTTTTT…TC). Conditions: aptamer strand: ATP DNA aptamer (quencher-CACCTGGGGGAGTATTGCGGAGGAAGG + anchor), 100 nM annealed; ATP concentration: 500 uM; one replicate.
In short: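 Cy3-labelled switching-strand clusters on a modified Illumina MiSeq flow-cell were annealed to 100 nM quencher-labelled ATP aptamer and imaged first in selection buffer, then after 15 min with 500 uM ATP at 22 °C. NaOH stripping and re-annealing separated each of five buffer/ATP cycles, and clusters outside 100-1000 RFU were excluded. The fluorescence ratio sums target-cycle Cy3 intensity over buffer-cycle Cy3 intensity per cluster and averages it per switch-domain sequence.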
Sequence CGGTTACGTG has a switch fluorescence ratio of 0.992.
Sequence CGGTTACTTT has a switch fluorescence ratio of 1.05.
CGGTTAGCCG gave a switch fluorescence ratio of 1.02.
Sequence CGGTTAGGCC has a switch fluorescence ratio of 0.947.
With CGGTTATCTG the switch fluorescence ratio was 1.04.
CGGTTGGCTA was tested, and the switch fluorescence ratio was 0.99.
For CGGTTGTTA, the switch fluorescence ratio was 0.919.
CGGTTTGGAA was tested, and the switch fluorescence ratio was 0.982.
CGTAAATGCG showed a switch fluorescence ratio of 0.98.
For CGTAACGTTT, the switch fluorescence ratio was 0.968.
In the case of CGTAAGAAAC, the switch fluorescence ratio is reported as 3.65.
In the case of CGTAATAGCA, the switch fluorescence ratio is reported as 1.05.
CGTAATATAC gave a switch fluorescence ratio of 3.03.
In the case of CGTAATCGCC, the switch fluorescence ratio is reported as 1.14.
CGTAATCGGT gave a switch fluorescence ratio of 1.04.
Sequence CGTAATTAC has a switch fluorescence ratio of 2.6.
Sequence CGTAATTGGT has a switch fluorescence ratio of 1.05.
CGTACATTAT gave a switch fluorescence ratio of 1.03.
Sequence CGTACCGTAT has a switch fluorescence ratio of 1.
In the case of CGTACGGCCT, the switch fluorescence ratio is reported as 0.971.
In the case of CGTACGGCGT, the switch fluorescence ratio is reported as 0.953.
For CGTACGTAG, the switch fluorescence ratio was 1.03.
In the case of CGTACGTTCA, the switch fluorescence ratio is reported as 1.03.
CGTACTAGTT was tested, and the switch fluorescence ratio was 0.968.
CGTACTTGCT showed a switch fluorescence ratio of 1.
CGTAGACTGT showed a switch fluorescence ratio of 1.06.
CGTAGAGCG showed a switch fluorescence ratio of 1.06.
Work on CGTAGCGGCA yielded a switch fluorescence ratio of 1.07.
Sequence CGTAGCTCAC has a switch fluorescence ratio of 6.92.
CGTAGGAACA gave a switch fluorescence ratio of 1.04.
CGTAGGAGTA showed a switch fluorescence ratio of 0.988.
Sequence CGTAGGGG has a switch fluorescence ratio of 0.992.
For CGTAGGTAG, the switch fluorescence ratio was 0.989.
CGTAGTATCG showed a switch fluorescence ratio of 0.95.
Sequence CGTATACAGA has a switch fluorescence ratio of 0.968.
CGTATCCGGA was tested, and the switch fluorescence ratio was 1.08.
In the case of CGTATGGA, the switch fluorescence ratio is reported as 0.972.
In the case of CGTATGTTTC, the switch fluorescence ratio is reported as 1.04.
Work on CGTATTGTAG yielded a switch fluorescence ratio of 1.
Sequence CGTATTTTAT has a switch fluorescence ratio of 0.994.
Work on CGTCAAAAAA yielded a switch fluorescence ratio of 1.11.
Work on CGTCAATGCT yielded a switch fluorescence ratio of 1.25.
With CGTCAGCACC the switch fluorescence ratio was 2.36.
In the case of CGTCAGCCGG, the switch fluorescence ratio is reported as 1.05.
CGTCAGTACG gave a switch fluorescence ratio of 1.03.
In the case of CGTCATCGGC, the switch fluorescence ratio is reported as 1.01.
CGTCCATCAA was tested, and the switch fluorescence ratio was 2.97.
For CGTCCATGTT, the switch fluorescence ratio was 1.
CGTCCATTTC was tested, and the switch fluorescence ratio was 1.08.
Sequence CGTCCCCGGA has a switch fluorescence ratio of 1.02.
CGTCCCGGGG gave a switch fluorescence ratio of 1.06.
With CGTCCTTGGG the switch fluorescence ratio was 0.98.
CGTCGAATGA was tested, and the switch fluorescence ratio was 0.964.
CGTCGAGCGG showed a switch fluorescence ratio of 1.02.
CGTCGAGCGT was tested, and the switch fluorescence ratio was 1.03.
Work on CGTCGCCAGT yielded a switch fluorescence ratio of 0.996.
CGTCGCCTGT was tested, and the switch fluorescence ratio was 1.02.
CGTCGGGAAG showed a switch fluorescence ratio of 1.02.
CGTCGGGTA gave a switch fluorescence ratio of 0.996.
For CGTCGTATCT, the switch fluorescence ratio was 0.95.
For CGTCGTGCGG, the switch fluorescence ratio was 0.963.
Work on CGTCTAGCCA yielded a switch fluorescence ratio of 1.01.
With CGTCTATTCG the switch fluorescence ratio was 0.988.
CGTCTCCATT showed a switch fluorescence ratio of 0.98.
CGTCTCTAAA was tested, and the switch fluorescence ratio was 1.02.
CGTCTTATTG was tested, and the switch fluorescence ratio was 0.964.
Sequence CGTCTTTTTA has a switch fluorescence ratio of 1.02.
CGTGAACGAC was tested, and the switch fluorescence ratio was 0.984.
For CGTGAATGAT, the switch fluorescence ratio was 1.03.
For CGTGAATGGG, the switch fluorescence ratio was 1.17.
Work on CGTGACAGTC yielded a switch fluorescence ratio of 1.04.
CGTGACAGTG was tested, and the switch fluorescence ratio was 1.02.
CGTGACCGGC gave a switch fluorescence ratio of 0.907.
Work on CGTGAGAACC yielded a switch fluorescence ratio of 1.02.
In the case of CGTGAGACCG, the switch fluorescence ratio is reported as 1.05.
CGTGAGAGAG gave a switch fluorescence ratio of 0.994.
CGTGAGGCGA was tested, and the switch fluorescence ratio was 1.04.
CGTGATCCGC was tested, and the switch fluorescence ratio was 1.3.
CGTGATCCTC was tested, and the switch fluorescence ratio was 1.14.
For CGTGCAATTA, the switch fluorescence ratio was 2.33.
CGTGCATAAA gave a switch fluorescence ratio of 1.01.
In the case of CGTGCATAAT, the switch fluorescence ratio is reported as 1.01.
For CGTGCCATTA, the switch fluorescence ratio was 0.981.
CGTGCCGAGC was tested, and the switch fluorescence ratio was 1.02.
CGTGCGCTGT was tested, and the switch fluorescence ratio was 1.06.
